According to article PMC4336329 (PLoS ONE, 2015):
Out of some 310,000 compounds screened, about 14,000 (4.5%) showed an effect of 50% or more. Effects have a minus sign here. Some of the results follow.

target: human ether-à-go-go-related gene (hERG) potassium channel (human, UniProt Q12809); test: primary screen, population patch clamp on CHO cells stably expressing hERG
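Note: peak tail current of the secondary pulse compared with the same well before compound.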

human ether-à-go-go-related gene (hERG) potassium channel, sequence (Q12809 whole entry, looked up): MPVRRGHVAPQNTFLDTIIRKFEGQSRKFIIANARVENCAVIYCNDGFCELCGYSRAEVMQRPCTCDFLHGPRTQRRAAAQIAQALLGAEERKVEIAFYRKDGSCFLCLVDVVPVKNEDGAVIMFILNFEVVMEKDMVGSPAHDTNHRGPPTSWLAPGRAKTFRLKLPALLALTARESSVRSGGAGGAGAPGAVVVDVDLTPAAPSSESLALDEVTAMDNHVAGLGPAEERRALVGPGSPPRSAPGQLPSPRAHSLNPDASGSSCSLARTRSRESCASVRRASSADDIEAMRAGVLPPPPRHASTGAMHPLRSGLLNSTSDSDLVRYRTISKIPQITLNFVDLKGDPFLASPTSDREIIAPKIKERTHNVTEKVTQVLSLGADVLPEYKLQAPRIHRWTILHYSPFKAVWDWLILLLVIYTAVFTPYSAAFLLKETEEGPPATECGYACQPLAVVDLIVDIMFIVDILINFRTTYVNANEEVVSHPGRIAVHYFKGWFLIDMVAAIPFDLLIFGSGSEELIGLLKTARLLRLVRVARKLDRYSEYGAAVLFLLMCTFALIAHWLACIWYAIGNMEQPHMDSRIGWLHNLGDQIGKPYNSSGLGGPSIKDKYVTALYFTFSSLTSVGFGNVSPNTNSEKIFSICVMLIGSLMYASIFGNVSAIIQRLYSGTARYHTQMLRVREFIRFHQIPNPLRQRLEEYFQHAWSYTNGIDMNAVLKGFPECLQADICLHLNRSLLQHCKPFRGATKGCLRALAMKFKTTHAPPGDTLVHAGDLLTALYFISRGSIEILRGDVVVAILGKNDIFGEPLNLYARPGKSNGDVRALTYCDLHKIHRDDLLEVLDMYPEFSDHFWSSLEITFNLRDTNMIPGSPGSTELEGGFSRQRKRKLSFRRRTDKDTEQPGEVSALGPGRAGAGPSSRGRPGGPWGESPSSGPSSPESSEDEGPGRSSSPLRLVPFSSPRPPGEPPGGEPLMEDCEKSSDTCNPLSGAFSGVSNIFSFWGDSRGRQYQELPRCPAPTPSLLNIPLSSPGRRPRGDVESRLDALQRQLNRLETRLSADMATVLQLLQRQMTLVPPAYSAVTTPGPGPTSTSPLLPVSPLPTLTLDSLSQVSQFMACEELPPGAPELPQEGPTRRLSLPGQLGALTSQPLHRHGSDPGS

| SMILES | hERG current change (%, negative = inhibition) at 10uM |
| --- | --- |
| CCc1nc(SCC(=O)Nc2ccccc2C)n[nH]1 | 16.2% |
| CCn1c(SCC(=O)Nc2cc(C)on2)nnc1-c1cccnc1 | 0.341% |
| C[C@@H](NC(=O)c1ncn(Cc2ccccc2)c1C(=O)N[C@H](C)c1ccccc1)c1ccccc1 | 14.1% |
| O=C(CNC(=S)N(CCCN1CCOCC1)Cc1cccs1)NCc1ccccc1Cl | -54.2% |
| O=C(O)C(=O)/C(=C\c1ccc([N+](=O)[O-])cc1)c1ccc2ccccc2n1 | -19.6% |
| O=C(COC(=O)c1ccco1)c1ccc(S(=O)(=O)N2CCCCC2)cc1 | 6.76% |
| Cc1ccccc1OCc1nc2ccccc2c(=O)n1/N=C/c1cn[nH]c1-c1ccc(Br)cc1 | 15.8% |
| CCOC(=O)c1[nH]c2ccccc2c1NC(=O)CN(C)C | 7.08% |
| c1ccc(-c2ccc(-c3[nH]ncc3CN3CCC(N4CCSCC4)CC3)cc2)cc1 | -80.7% |
| O=C(O)c1ccccc1C(=O)N1CC=C(c2ccccc2)CC1 | 3.44% |
| O=C(CN(C(=O)c1csnn1)c1cccc(C(F)(F)F)c1)NC1CCCC1 | 4.49% |
| CCOC(=O)c1c(-c2ccccc2Cl)csc1NC(=O)c1cc(S(=O)(=O)N2CCOCC2)ccc1C | 12.4% |
| CC(C)(C)N(Cc1ccccc1)C(=O)COC(=O)Cn1cnc2ccccc2c1=O | -4.48% |
| COC(=O)C(NS(=O)(=O)c1ccccc1Cl)c1ccccc1 (stereo not shown) | 3.81% |
| CC(=O)NC(Cc1cccc(C)c1)C(=O)NC1CCN(S(=O)(=O)c2ccccc2)CC1 (stereo not shown) | 2.86% |
| Cc1ccc(SCC(=O)OCC(=O)NCCNC(=O)COC(=O)CSc2ccc(C)c(C)c2)cc1C | 6.56% |
| COc1ccc(CN2CCC(C)CC2)cc1OCc1ccccc1 | -49.6% |
| COc1cccc(NC(=S)N(CCCN2CCC(C)CC2)Cc2cccs2)c1 | -59.2% |
| CCc1ccc(C(=O)NC(C(=O)NCC2CCCO2)C(C)C)cc1 (stereo not shown) | 15.1% |
| CCOc1[nH]n(-c2ccccc2)c(=O)c1C=NCC(=O)OC | -18.8% |
| O=C(NCc1ccco1)c1ccc2c(c1)N(Cc1ccc(Cl)cc1)CCS2 | -18% |
| COc1cc(/C=C/C(=O)OCC(=O)NCC(=O)Nc2cccc(C)c2C)ccc1OC(F)F | -25.7% |

| SMILES | hERG current change (%, negative = inhibition) at 10uM |
| --- | --- |
| O=C(Cn1c(=O)oc2ccccc21)N1CCOCC1 | 15.4% |
| Cc1c(NC(=O)/C(C#N)=C/c2ccc(-c3ccc(Cl)c(Cl)c3)o2)c(=O)n(-c2ccccc2)n1C | -4.97% |
| C=CCN(CC=C)Cc1cc(=O)n2c(-c3ccccc3)csc2n1 | 0.138% |
| CCOC(=O)[C@H]1[C@H]2COc3ccc(Cl)cc3[C@@H]2N2C(=O)c3ccc(F)cc3NC(=O)[C@@]12C | -3.63% |
| COc1ccc(Cn2nnnc2C(c2ccc3ncccc3c2)N2CCN(C3CCCCC3)CC2)cc1 (stereo not shown) | -82.8% |
| O=C(COc1ncnc2sccc12)Nc1ccc(F)cc1F | -3.82% |
| Cc1cc(N2CCOCC2)c2c(N)cc(C)c(C)c2n1 | -44.9% |
| CCCCNC(=O)c1ccc2c(c1)C(=O)N(Cc1ccncc1)C2=O | -12.5% |
| COC(=O)C(NS(=O)(=O)c1cccc(S(=O)(=O)NC(C(=O)OC)c2ccccc2)c1)c1ccccc1 (stereo not shown) | -45.7% |
| COc1ccccc1Nc1nc(C)c(C(=O)Nc2ccccc2)s1 | 10.3% |
| CCC(C)[C@H](NC(=O)Nc1ccc(Oc2ccccc2)cc1)C(=O)O (stereo partly shown) | 17.1% |
| S=c1[nH]nc(Cc2ccc(Cl)cc2)n1-c1ccc2c(c1)OCCO2 | 2.4% |
| O=Cc1cn(Cc2ccc(Br)cc2)c2ccccc12 | 15% |
| Cc1ccc(C2C(/C=C3/SC(=S)NC3=O)=C(c3cccs3)Oc3ccccc32)cc1 (stereo not shown) | 0.741% |
| CSc1ccc(/C=C/c2cc(=O)c3ccccc3[nH]2)cc1 | 3.9% |
| CSc1nsc(SCC(=O)Nc2ccc(C(C)=O)cc2)n1 | -6.63% |
| COc1cccc(NC(=O)C2CCN(S(=O)(=O)c3ccc4c(c3)C(C)(C)C(=O)N4C)CC2)c1 | 17.9% |
| COc1ccc(S(=O)(=O)n2[nH]c(=O)c(CCO)c2C)c([N+](=O)[O-])c1 | 15.6% |
| Cn1c(SCC(=O)NC(C)(C)C)nnc1-c1cnccn1 | 12.8% |
| COc1ccc(F)c(-c2nc(CN3CCN(C(=O)c4ccco4)CC3)c(C)o2)c1 | -35.9% |
| Cc1occc1C(=O)Nc1ccc(OCc2ccccc2)cc1 | 6.72% |
| CC(=O)c1cccc(NC(=O)NN2CCN(C)CC2)c1 | 20.3% |

| SMILES | hERG current change (%, negative = inhibition) at 10uM |
| --- | --- |
| COc1ccc(CNC(=O)C2CCN(C(=O)c3sccc3-n3cccc3)CC2)cc1 | -9.56% |
| COc1ccccc1NC(=O)CCc1c(C)nc2c(-c3ccc(F)cc3)c(C)nn2c1C | -20.3% |
| O=S(=O)(c1ccc(SCCOc2ccc(F)cc2)nc1)N1CCCC1 | -5.19% |
| O=C(COc1ccccc1F)NNC(=O)Cc1ccc(S(=O)(=O)N2CCOCC2)s1 | 1.34% |
| O=C1CN(CC(=O)NC(=O)NCc2ccccc2)CCN1 | 9.71% |
| CCOc1ccc(-c2nc(CCl)cs2)cc1OC.Cl | 16.2% |
| C(=C\c1ccncc1)/c1ccncc1 | -9.01% |
| COc1ccc(NS(=O)(=O)c2ccc(-n3cnnn3)cc2)cc1OC | -4.87% |
| COc1ccc(OC)c(-n2c(C)nc3cc(C(=O)O)ccc32)c1 | 1.96% |
| CC(CCC(C)OC(=O)c1ccccc1C(=O)O)OC(=O)c1ccccc1C(=O)O (stereo not shown) | 21.1% |
| Cc1cccc(-n2c(O)c(/C=C/C=Nc3ccccc3)c(=O)[nH]c2=O)c1 | -9.75% |
| O=C(CCN1C(=O)c2ccccc2S1(=O)=O)Nc1cc(Cl)ccc1Cl | 1.66% |
| O=C(CSc1nnc(CNC(=O)c2ccccc2F)o1)Nc1ccc2c(c1)OCO2 | -5.97% |
| COC(=O)c1ccc(OC)cc1OCC(=O)N1CCN(c2ccc(F)cc2)CC1 | -33% |
| COc1ccc(CNC(=O)CCSCc2ccccc2Cl)c(OC)c1 | -7.62% |
| CCOc1ncccc1C(=O)OC(C)C(=O)NC(=O)NC1CCCCC1 (stereo not shown) | -43.7% |
| COC(=O)Nc1ccc(S(=O)(=O)N2CCCC(C(=O)N3CCOCC3)C2)cc1 (stereo not shown) | -7.43% |
| CCC(C(=O)NCCc1c[nH]c2ccc(C)cc12)c1ccccc1 (stereo not shown) | 12.1% |
| CN(Cc1ccccc1)c1ncc(C=O)s1 | 12.9% |
| COC(=O)c1cccc(NC(=O)CSc2nc(C)cc(=O)[nH]2)c1 | 19.7% |
| COc1ccc(OCC#CCN2CC(C)OC(C)C2)cc1.O=C(O)C(=O)O (stereo not shown) | -4.35% |
| C=CCN(Cc1nc(-c2ccc(OC)c(OC)c2)oc1C)C1CCS(=O)(=O)C1 (stereo not shown) | 3.66% |

| SMILES | hERG current change (%, negative = inhibition) at 10uM |
| --- | --- |
| C=CCn1c(COc2ccc(OC)cc2)nnc1SCn1nnc2ccccc2c1=O | -27.1% |
| O=C1c2[nH]nc(-c3ccccc3O)c2C(c2cccc(Cl)c2)N1CC1CCCO1 (stereo not shown) | -3.84% |
| COc1ccc(CNC(=O)C(c2ccco2)N(Cc2ccccc2)C(=O)Cc2cccs2)cc1 (stereo not shown) | 18% |
| Cc1ccc(S(=O)(=O)CCC(=O)Nc2nc(-c3cccnc3)cs2)cc1 | 22.3% |
| COc1ccc2oc(-c3ccccc3)c(C(=O)N3CCOCC3)c2c1 | -8.44% |
| NC(=O)CSc1nnc(Cc2ccc3c(c2)OCO3)o1 | 18.1% |
| Cn1c(=O)c2c(nc(CN3CCc4ccccc4C3)n2CCCO)n(C)c1=O | -1.23% |
| CC1=CC(C)(C)n2c(O)c(C3=NC(=S)NC3=O)c3cc(OC(=O)c4cccc5ccccc45)cc1c32 | 1.23% |
| O=C(COc1ccc(NC(=O)c2cccs2)cc1)c1ccc(F)cc1 | 16.1% |
| CCCc1ccc(OCCNC(=O)c2ccccc2Br)cc1 | -8.41% |
| COc1ccc(S(=O)(=O)Nc2cc(C(=O)NCCCOC(C)C)ccc2N2CCOCC2)cc1 | -27.1% |
| Cc1ccc(C)c(NC(=O)CN(C)C(=O)Cc2coc3cc(C)c(C)cc23)c1 | 11.8% |
| COc1ccc(-c2nc(N)nc(C(F)(F)F)c2-c2csc(C)n2)c(O)c1 | 3.66% |
| COc1cc(/C=N/N(C)C2=NS(=O)(=O)c3ccccc32)cc(OC)c1OC | 7.82% |
| Cc1ccccc1OCC(=O)OCC(=O)Nc1cc(S(C)(=O)=O)ccc1Cl | 5.58% |
| CCN(CC)S(=O)(=O)c1ccc(N2CCOCC2)c(NC(=O)c2c3c(nc4ccccc24)CCC3)c1 | -0.0112% |
| COC(=O)c1ccc(CC(=O)c2nc3ccccc3s2)cc1 | 5.7% |
| COc1cccc(C(=O)C[n+]2cccc3cc(OC)ccc32)c1.[Br-] | 4.65% |
| Cn1cc(NC(=O)Nc2ccc(C(F)(F)F)cc2)c(C(F)(F)F)n1 | 3.28% |
